# Laboratory results taken from article PMC4336329 (PLoS ONE, 2015).
# About 14,000 (4.5%) of roughly 310,000 compounds showed an effect of 50% or more. The effect is printed as a negative number. The list shows a part of the results.
# Target: human ether-à-go-go-related gene (hERG) potassium channel (human, UniProt Q12809)
# Assay: primary screen, population patch clamp on CHO cells stably expressing hERG
# 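Also: peak tail current of the secondary pulse compared with the same well before compound.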
# Sequence of human ether-à-go-go-related gene (hERG) potassium channel (Q12809 whole entry, looked up): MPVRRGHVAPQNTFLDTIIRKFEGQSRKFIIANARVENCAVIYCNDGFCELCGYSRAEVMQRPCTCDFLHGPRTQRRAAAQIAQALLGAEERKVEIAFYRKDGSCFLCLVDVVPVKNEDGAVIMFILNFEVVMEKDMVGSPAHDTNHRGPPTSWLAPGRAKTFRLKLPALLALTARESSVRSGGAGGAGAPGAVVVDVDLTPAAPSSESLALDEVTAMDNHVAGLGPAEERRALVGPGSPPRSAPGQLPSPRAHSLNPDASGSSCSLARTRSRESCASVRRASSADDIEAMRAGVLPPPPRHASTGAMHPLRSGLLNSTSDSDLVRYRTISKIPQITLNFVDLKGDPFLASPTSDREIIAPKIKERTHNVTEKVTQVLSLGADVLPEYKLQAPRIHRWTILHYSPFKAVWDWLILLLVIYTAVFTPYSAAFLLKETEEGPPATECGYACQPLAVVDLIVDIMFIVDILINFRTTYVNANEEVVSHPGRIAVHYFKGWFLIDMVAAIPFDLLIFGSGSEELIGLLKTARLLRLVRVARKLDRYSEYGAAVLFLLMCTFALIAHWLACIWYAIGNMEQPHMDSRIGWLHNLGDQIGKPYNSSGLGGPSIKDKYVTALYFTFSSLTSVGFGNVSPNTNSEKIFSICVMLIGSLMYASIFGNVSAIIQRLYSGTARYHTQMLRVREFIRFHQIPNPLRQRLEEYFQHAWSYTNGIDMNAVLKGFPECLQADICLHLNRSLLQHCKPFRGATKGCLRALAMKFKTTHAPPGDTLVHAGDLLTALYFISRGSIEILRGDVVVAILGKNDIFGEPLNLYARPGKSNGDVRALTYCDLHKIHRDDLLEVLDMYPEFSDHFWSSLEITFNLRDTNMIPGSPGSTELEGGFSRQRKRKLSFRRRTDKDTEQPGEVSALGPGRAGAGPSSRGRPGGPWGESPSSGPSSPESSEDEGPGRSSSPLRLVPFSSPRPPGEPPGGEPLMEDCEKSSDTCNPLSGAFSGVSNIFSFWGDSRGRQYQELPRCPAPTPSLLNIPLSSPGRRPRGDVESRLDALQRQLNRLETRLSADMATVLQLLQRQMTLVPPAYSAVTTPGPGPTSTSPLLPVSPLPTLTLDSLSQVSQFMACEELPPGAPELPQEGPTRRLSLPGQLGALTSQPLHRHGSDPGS
row,SMILES,"hERG current change (%, negative = inhibition) at 10uM [%]"
1,C=CCSc1ncnc2c1oc1nc3c(cc12)COC(C)(C)C3,16.7
2,CC(=NCCc1ccccc1)C1=C(O)COC1=O,5.36
3,Cc1scc(C(=O)NNC(=O)CCC(=O)O)c1C,9.43
4,O=C(Nc1ccc(F)cc1F)c1csc(-c2ccccc2)n1,18
5,CCN(CC)Cc1nc2c(c(=O)[nH]1)C1(CCCCC1)Cc1ccccc1-2,9.77
6,Cc1ccc(-n2c(SCC(=O)NCCN3C(=O)CSC3=O)nnc2-c2ccccc2)cc1,-12.4
7,CC(C)n1ncc2c(C(=O)NCC(=O)Nc3ccccc3Br)cc(C3CC3)nc21,-30.3
8,COc1ccc(C2=NN(C(=O)CN3CCCCC3)C(c3ccc(C)cc3)C2)cc1 (centres unmarked),-54.9
9,CN(CCc1ccccn1)C(=O)CC1C(=O)NCCN1Cc1ccc(-c2ccccc2)cc1 (centres unmarked),-21.2
10,O=C(NNS(=O)(=O)c1ccc(F)cc1)c1ccc([N+](=O)[O-])cc1,2.38
11,COc1ccc(/C=N/OCC(=O)Nn2c(C)nc3ccccc3c2=O)cc1,-4.87
12,Cc1nc2ccc(Cl)cc2nc(C)/c1=N\O,-1.89
13,CC(C)C(=O)Nc1ccc(C(=O)Nc2ccc(S(=O)(=O)N3CCOCC3)cc2)cc1,-1.28
14,COc1ccc(C(Nc2ccccn2)c2c(NC(=O)c3ccco3)sc(C)c2C)cc1OC (centres unmarked),-6.48
15,NS(=O)(=O)c1ccc(CCNC(=O)CSCC(=O)Nc2ccc(Cl)cc2)cc1,0.167
16,CCNS(=O)(=O)c1ccc(CCC(=O)Nc2ccc3c(c2)OCCO3)cc1,7.22
17,CN(CCC#N)C(=O)COC(=O)c1ccc(Cl)c(S(N)(=O)=O)c1,21.8
18,CC(=O)c1ccccc1NC(=O)COC(=O)c1c(C)nn(-c2ccccc2)c1C,4.23
19,COc1ccc(N2CCN(S(=O)(=O)c3cc(Br)cnc3N)CC2)cc1,17.2
20,CC(=O)Nc1nnc(SCC(=O)Nc2ccc(N3CCOCC3)c(Cl)c2)s1,17.9
21,CC(=O)Nc1ccc2nc(-c3cccs3)[nH]c2c1,12.2
22,CCN(CC)S(=O)(=O)c1ccc2c3c(cccc13)C(=O)S2,-18.4
23,COc1ccc(C(=O)COC(=O)CCNS(=O)(=O)c2ccccc2)c(OC)c1,-45.7

row,SMILES,"hERG current change (%, negative = inhibition) at 10uM [%]"
1,CCCS(=O)(=O)N1CCCC(C(=O)NCCN(Cc2ccccc2)C(C)C)C1 (centres unmarked),-25.6
2,CCOC(=O)CSc1nc(N2CCOCC2)c2c(c1C#N)CC(C(C)C)OC2 (centres unmarked),-48.7
3,CCn1c(C)nc([N+](=O)[O-])c1C(=O)O,6.92
4,C=C1C(O)C[C@H]2C(=C)CCC3[C@H](OC(=O)[C@]3(O)CO)[C@@H]12 (some centres unmarked),26.2
5,Cc1nn(S(=O)(=O)c2ccc(Br)cc2)c(C)c1S(=O)(=O)N1CCOCC1,-1.31
6,COCc1nnc(NC(=O)c2ccc(S(=O)(=O)N(C)Cc3ccccc3)cc2)o1,5.53
7,O=C(NCCCN1CCOCC1)[C@@H]1CSC2c3ccccc3C(=O)N21 (some centres unmarked),8.36
8,O=C(Nc1cccc(Cl)c1N1CCOCC1)c1ccc([N+](=O)[O-])o1,2.67
9,CCn1c2ccccc2c2nc3cc(OC)c(OC)cc3nc21,14.7
10,CCCCN1C(=O)C(O)=C(C(C)=O)C1c1ccccc1 (centres unmarked),11
11,Cc1cc(C)nc(Nc2ccc(O)cc2)n1,-0.568
12,O=c1cc(C2CCNCC2)[nH][nH]1,4.59
13,Cc1nc2ccccc2c(=O)n1-c1ccccn1,16.6
14,COc1cc(NC(=O)CN(C)S(=O)(=O)c2ccc(-c3ccc(=O)[nH]n3)s2)cc(OC)c1,-5.53
15,CCN(CC)C(=O)c1ccc(Nc2nnc(C)c3ccccc23)cc1,-13.8
16,CC(C)(C)OC(=O)NCCCC[C@@H](C(=O)N1CCN(C(=O)OC(C)(C)C)CC1)n1cc(C(CO)NC(=O)OC(C)(C)C)nn1 (some centres unmarked),18.8
17,CSc1ncccc1C(=O)OCC(=O)C(C)(C)C,-8.39
18,Cc1ccc(C(=O)N2CCNC(=O)C2CC(=O)Nc2ccccc2)cc1 (centres unmarked),7.21
19,C=CCn1c(SCC(=O)Nc2nccs2)nnc1-c1cc2cccc(OC)c2o1,-4.98
20,CCCc1nc2nc(C)c(NS(=O)(=O)c3ccc(C(C)(C)C)cc3)c(=O)n2[nH]1,19.1
21,Cc1ccc(/C=N/NC(=O)c2cc(-c3cccnc3)nc3ccccc23)cc1,-5.06
22,c1ccc(CN(Cc2ccccc2)c2nn[nH]n2)cc1,0.498
23,O=C(CSc1ccc2nnc(CCNS(=O)(=O)c3ccccc3)n2n1)Nc1nc2ccccc2s1,-0.993

row,SMILES,"hERG current change (%, negative = inhibition) at 10uM [%]"
1,O=C(O)C1=C[C@H](c2ccc3c(c2)OCO3)C[C@H](OCc2ccc(CO)cc2)O1,20.6
2,O=C1C2CC=CCC2C(=O)N1c1ccc(NCCc2cccc(F)c2)c([N+](=O)[O-])c1 (centres unmarked),3.22
3,CCOC(=O)N1CCN(CCC(=O)Nc2ccc(C)c(Br)c2)CC1.Cl,-49.8
4,O=C(Nc1cccc2ccccc12)C1CCCC1,5.2
5,O=[N+]([O-])c1ccc(CSc2ccccn2)cc1,-21
6,Cc1ccc2[nH]cc(C(=O)CN3CCN(c4ccccn4)CC3)c2c1,-37.4
7,CCNCC(=O)N1c2ccccc2CCc2ccc(NC(=O)OCC)cc21,-12
8,COc1ccc(C(=O)NCCS(=O)(=O)N2CCOCC2)cc1,10.8
9,Cc1nc(C(N)=O)nc2ccccc12,5.71
10,O=C(CSc1ncn[nH]1)N/N=C/c1ccc(Br)cc1,-11.4
11,CC1=C(C#N)c2nc(N)c(C#N)c(C)c2/C1=C\c1ccc(C)cc1,3.8
12,CCOC(=O)C(C)(C)n1nnc(-c2ccc([N+](=O)[O-])cc2)n1,-10.2
13,COc1ccccc1Oc1nc2ccccn2c(=O)c1/C=C(\C#N)C(=O)Nc1c(C)n(C)n(-c2ccccc2)c1=O,11.1
14,O=C(Cc1cccs1)NCc1ccncc1,8.62
15,CCCN(CCC)CCNC(=O)C1CC(=O)N(c2ccc(OC)cc2)C1c1ccc(OC)cc1 (centres unmarked),-40.7
16,NC(=O)c1c(NC(=O)CN2CCOCC2)sc2c1CCC2,-11.9
17,Cc1ccsc1C(=O)N1CCCC(N(C)Cc2ccccc2)C1 (centres unmarked),-13.9
18,C=CCn1c(=N)c(C(=O)NCCCOC)cc2c(=O)n3ccccc3nc21,-60.1
19,CC(C)(C)c1nc(SCC(=O)N2CC(=O)Nc3ccccc32)c2ccccc2n1,42.8
20,O=C(CCOc1ccccc1)N1CCN(S(=O)(=O)c2ccccc2F)CC1,-4.19
21,CCCCCOc1ccccc1C(=O)NCCCCCC(=O)O,-42.3
22,Nc1nc(CN2CCN(c3ccccn3)CC2)nc(Nc2ccc(Cl)cc2)n1,-74.8
23,COC(=O)c1ccccc1OCCOCCOc1cccc2cccnc12,-40.6

row,SMILES,"hERG current change (%, negative = inhibition) at 10uM [%]"
1,O=C(CN1CCCCCC1)OCCN=C1NS(=O)(=O)c2ccccc21,1.76
2,CCc1ccc(NC(=O)C(C)Sc2nnc(CN3CCCC3)o2)cc1 (centres unmarked),8.15
3,O=C(N/N=C/C=C/c1ccccc1)c1cccc(Br)c1,5.3
4,COC(=O)Nc1ccc(S(=O)(=O)N2CCCC(C(=O)N3CCC(C)CC3)C2)cc1 (centres unmarked),-18.7
5,COc1ccccc1CNc1ccc(N2CCOCC2)c(C(=O)O)c1,-8.53
6,CCn1c(CSc2nnc(-c3cccnc3)n2-c2ccccc2C)nc2cc(C(=O)O)ccc21.Cl,-13.8
7,CC(C)(C)c1ccc(C(=O)N2CCC(C(=O)NC3CCCCCC3)CC2)cc1,-40
8,CCN(CC)CCN=Cc1c(O)n(Cc2ccccc2)c(=O)[nH]c1=O [14739636],-31.3
9,CCOCCCNC(=S)N1CCN(Cc2ccco2)CC1.O=C(O)C(=O)O,17.8
10,Cc1ccc(C(=O)NC2(O)C(=O)c3ccccc3C2=O)cc1C,9.51
11,COc1ccc(-n2c(CN3CCOCC3)nc3ccccc3c2=O)c(OC)c1,22.9
12,COc1ccccc1/C=C/C1=NC(=C\N(C)C)/C(=O)O1,-9.82
13,COc1ccc(C2Nc3ccccc3C(=O)N2Cc2ccccc2)cc1Cn1nnc2ccccc21 (centres unmarked),-25.1
14,Cc1ccc(NC(=O)/C(=C\c2ccco2)NC(=O)c2ccco2)cc1,-17.5
15,Cc1cnc(NC(=O)c2ccc3c(c2)C(=O)N(Cc2ccco2)C3=O)s1,-10.9
16,CN(C)/C=N/c1nc2nccc(-c3ccccn3)n2n1,9.16
17,CCSc1nc(C)cc(C)c1S(=O)(=O)c1ccccc1C,0.0832
18,CCOC(=O)c1sc(=S)n(CC)c1NC(=O)C1CC1,6.93
19,COc1ccccc1CNC(=O)CCCOc1cc(=O)n(C)c2ccccc12,4.57
20,CCn1c(SCC(=O)Nc2cc(C)on2)nnc1-c1ccc(OC)cc1,-12.6
